Measurements: the RNAGym collection of RNA variant scans (doi:10.7554/elife.90254)
Read counts are not given, so values of variants with three or more changes are uncertain.

B1: LINE1-full (parent)
chain: UACGUAGGUGGUUUUCCCCUGAUAGUGCUAAGGGGGCCUGGAAGUUUGGACUGGGCAGAGCUCAACACAGCGUGGCAAAGUGGCUGUGGCUAGACUGCCUCUCUGGAUUCCUCGUCACUCAGCAGGGCAUCUCUGAGAGAAAUGCC

Variants of: B1
Assay: self-cleavage, relative activity (ratio to wild type); higher = more cleavage; in vitro, sequencing; the parent is a self-cleaving ribozyme

Row | Variant | self-cleavage
1 | A69G U104C U112A | 0.42
2 | A65G A69U U73C | 0
3 | A65U U87C U119A | 0.02
4 | A69G A78G A79G A141G | 0
5 | U73A U108C U115G A140G | 2.25
6 | A69G U104A A140G | 0.16
7 | A65G G72A A78G A121G C131U | 0.04
8 | A65G A77U U108C | 0.03
9 | U73A C90G U96A U134C A140U | 0.02
10 | C71G U73A A141G | 0.07
11 | U73A A117G U132C | 0.88
12 | U73C A78U A107G | 2.04
13 | A69G G83A U132C A138G | 0.19
14 | C71U A77U A141G | 0.93
15 | A65U A121G U143C | 0.07
16 | A69U A138U A142G | 0.08
17 | A65U A79G A142G | 0.06
18 | A69G C113A A141G | 0.37
19 | A69U G127U A138G | 0.05
20 | A65G U73C A92U | 0
21 | C66U U81A C84U | 0.04
22 | A69G G74A C120A A121G | 0.47
23 | A69U A79U G126A G139U | 0.1
24 | A67G U115C G126A | 0.81

Row | Variant | self-cleavage
25 | G72A U85C A92G G114A | 0.07
26 | A65G A79G C133A | 0.12
27 | A65G U85C C95A A107G A138G | 0
28 | A67G G83A A136U | 0.25
29 | C66U U132C U134A | 0.02
30 | A69G C110U U130A | 0.66
31 | A65G A77U U115C | 0.05
32 | U73A U108C A138U | 2.51
33 | A67C A78G U109C | 0
34 | A67G U81C C133U A142G | 0.46
35 | A69G U130A A138G | 0.56
36 | A69G U87C G105A | 0.11
37 | C68U A77U U85C U130A | 0.05
38 | U73A U81C U96C | 0.06
39 | A65C A69U G82U U119A | 0.03
40 | A69G U104C C128U U132A | 0.77
41 | A69G U85A U112A G122U U130C A138G | 0
42 | A65U U87C U104A C123A | 0.04
43 | A67G A129U U143C | 0.59
44 | G72A U102A U108A A136G | 1.09
45 | U73A U100C A121G | 2.67
46 | A65G A77G G126A | 0.1
47 | A65G A67G A140G | 0
48 | A69G U81C U119C | 0

Row | Variant | self-cleavage
49 | A67G C99U U102A A121G | 0.16
50 | A69G A77G U130C | 0
51 | U73C A77G U130C | 2.3
52 | U73A A78G C99A U100A G125A U130C | 0.29
53 | A65C U115A U130A | 0.03
54 | U73A A92G U109C | 0.1
55 | A69G U85C G144A | 0.42
56 | A67C A69G U130C A136G | 0
57 | A69U A79U A107G | 0.1
58 | A67U U119A U143A | 0.06
59 | A65U C68U A138G | 0.07
60 | A65U U91C A129U | 0.07
61 | A65G U115A U134G | 0.03
62 | A67G G114A A124G A142G | 0.36
63 | G72U U91C U143A | 0.53
64 | A64U U132C A142G | 0.77
65 | A67U U130C A138G | 0.3
66 | A67U A94G U115G A140G | 0.34
67 | A69U U73A A78G | 0.05
68 | A65U A124U U134A | 0.13
69 | A65G U112C U134A | 0.07
70 | A65G C71U A142G | 0
71 | C68U U85G U143G | 0.02
72 | A65G U132A U143C | 0.09

Row | Variant | self-cleavage
73 | A67C A136U A142G | 0.33
74 | A69U A117U U130C | 0
75 | A65U U109A U143C | 0.17
76 | U73A A121U G137U | 0.63
77 | C68U U115C A129U | 0.38
78 | C68U U85A A129G U130C A136G | 0.02
79 | C66U U81C U96C | 0.05
80 | A65U U73A U85A A141G | 0.04
81 | A67G U81A U132C A142G | 0.82
82 | A65G G80A U143C | 0.02
83 | C71U A77G U134C | 1.55
84 | C71A U73C A140G | 0.08
85 | A67G A141G U143C | 0.14
86 | U73C A78G A94U U102C A138G | 0.53
87 | A67G U132A A142C | 0
88 | A67G U108C U130C | 0.51
89 | C71U U102C U119C A129U | 1.72
90 | A69U A77G C84A A107G A136U A140G | 0.15
91 | A69G U100C U134C A136U G137A | 0
92 | A69G A77G A142G | 1.2
93 | A65U A92U U115C A124U | 0.15
94 | A69C A107C C110U A124U | 0.05
95 | A65G U85C A142G | 0
96 | A65U C76U U115C C145G | 0.28

Row | Variant | self-cleavage
97 | A65G U134C G137A A141G | 0
98 | U73A A79G A142G | 0.87
99 | C68U A69U U130C | 0.06
100 | G72A A78G U104C U112C U132C | 1.56
101 | U73A U134C A138G | 1.44
102 | A65G U102C C120U U134A | 0.02
103 | C68U G97C A138G A141G U143A | 0.07
104 | C71A A78U A117G | 0.2
105 | U73A U85C G88U U119C | 0.04
106 | C68U A94G C110U | 0.03
107 | A67G A69U U91C A92U | 0
108 | U73A A142U U143G | 1.91
109 | A67G A107G U112A | 0.45
110 | A65G G125A A138G | 0
111 | U73A A79G U85G | 0.72
112 | U73A G80A U130C C133A | 1.87
113 | U73A A94G A140G | 0.24
114 | U73A A124G U130C A140G A141G | 0.68
115 | A65G U73C A79U C120A | 0.04
116 | A65G A78U U115A A124U | 0.03
117 | A67G A78G C98A U109C | 0.33
118 | A69U U102G U104G | 0
119 | U73A G97A A141G | 0.05
120 | C66U U102C U115C A142G | 0.07

Row | Variant | self-cleavage
121 | A65G U73C U104C A121U G125U | 0
122 | A69G U73G U112A G137A | 0.92
123 | A69U U108A U115C | 0.07
124 | A65U A78G U109A A138U | 0
125 | A65G U73A U134C | 0.02
126 | A67G A79G G93U U104A | 0.02
127 | A69G U87A U91A | 0.18
128 | G70A A78G C90U | 0.02
129 | A69U U102A A124G | 0.16
130 | A67U G122A A124U | 0.1
131 | A69C U81C A136U | 0
132 | U73A U91A U96A A107U A117G | 0.08
133 | A65G U85C A138U | 0.18
134 | A69C U91C U134A U143C | 0.08
135 | A65G A78G A129G | 0
136 | A65G A67G G89A | 0.07
137 | A67U C98A A117G | 0.04
138 | G70C U104C U134A | 0.11
139 | A65C U87A A142G | 0.08
140 | A69G U85G U100C | 0
141 | A69G U81A U91C | 0.13
142 | A65U A79G U108G U109C | 0.33
143 | A67G A78U U96A | 0.02
144 | A69G U73A A121G | 0.19

Row | Variant | self-cleavage
145 | A67G C71G U102C | 0
146 | C71U A77C A140G | 0.33
147 | A65U A67U U104C | 0.02
148 | A69G A121U A124G A136G | 1.62
149 | U73C A78G U91A G125U | 0.42
150 | A69U A79U U100C | 0.19
151 | A67U A77G U100G A124U | 0
152 | A69G U130A A140U | 0.12
153 | A67U A77G A141G | 0.29
154 | A69G A92G C103A | 0.13
155 | U73A U81A A129G U134A | 1.77
156 | A65G A121G A142G | 0.18
157 | A65G U73C A124U | 0
158 | U73A C76U U112C A141G | 2.57
159 | A65G A79G U134A | 0.1
160 | A69C A78U U132G | 0
161 | C66U A69G A124G | 0
162 | A67U U73C A136G A141U | 0.12
163 | A67U A78G U104C | 0.04
164 | A67U U108C A142G | 0.13
165 | A65G A67G U115A | 0
166 | G72A U87A U104A | 0.08
167 | A69U U119C A121U | 0
